Laboratory results: PubChem BioAssay AID686979 (National Center for Advancing Translational Sciences (NCATS), 2013)
Hit rate of the full screen: of about 420,000 compounds, about 50,000 (12%) were called active. The inconclusive results got no clear call from the source; some entries with a clear call stand among them for comparison. The call rests on the fitted dose curve; in most records, active means well fitted inhibition curve with a large enough effect; inconclusive means small, poorly fitted or top-dose-only effect; inactive means flat fitted curve, though single readings scatter. Potencies of inconclusive entries are left out as doubtful fits.
On the % scale 0 is the no-effect control and ±100 the full control effect; potency means the concentration at half of the fitted maximal effect; tags describe the fitted curve by direction and shape.

Experiment: qHTS for Inhibitors of human tyrosyl-DNA phosphodiesterase 1 (TDP1): qHTS in cells in presence of CPT; further: nearly all actives have a fitted effect of over 55% in size
Settings: chicken DT40 Tdp1-/-;hTDP1 cells + 20 nM CPT, ATP luminescence, 48 h; activity change, negative = growth inhibition: at 46.2 µM (top of the series) unless noted
How it was run: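 Chicken DT40 Tdp1-/- cells stably complemented with human TDP1 were seeded at 400 cells/well in medium containing 20 nM camptothecin, exposed to pin-transferred compounds, and grown at 37 °C for at least 48 hr. Viability was read as ATP luminescence.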
For CCOCCCNC(=S)Nc1ccc(S(N)(=O)=O)cc1, the “activity change, negative = growth inhibition” value was inactive: 0.309%. With CSc1nnc(C)c(=O)n1COC(=O)COc1ccc2ccccc2c1 the Potency was inconclusive [inhibitor, single point]. With COc1ccc(OCC(=O)Nc2ccc(O)c(-c3nc4ccccc4s3)c2)cc1 the Potency was active: 0.82 µM. With Cc1ccc(-c2nc(COC(=O)C3=NN(c4ccccc4)C(=O)CC3)cs2)cc1 the “activity change, negative = growth inhibition” value was inactive: -5.96%. With Cc1ccc(N=Cc2cc3c(cc2O)OC(N)=C(C#N)C3c2ccccc2)cc1 (stereo not drawn) the Potency was inconclusive [inhibitor, single point]. For Cc1ccc(CN(C(=O)COc2ccc(C(C)C)cc2)C2CCS(=O)(=O)C2)o1 (stereo not drawn), the Potency was active: 14.6 µM. For Cc1cccc(NC(=O)c2nc[nH]c2C(=O)N[C@@H](C)c2ccccc2)c1, the Potency was active: 23.1 µM. With COc1ccccc1NC(=S)N(Cc1cccs1)C1CCCC1 the Potency was inconclusive [inhibitor, single point]. In the case of COc1ccc(CC(=O)N2CC(=O)Nc3ccc(Br)cc3C2c2ccc(F)cc2)cc1 (stereo not drawn), the Potency is reported as inconclusive [inhibitor, single point]. With O=C(CC1C(=O)NCCN1Cc1ccc(F)cc1)NC1CCCCCCC1 (stereo not drawn) the Potency was inconclusive [inhibitor, single point]. In the case of COc1cccc(/C=N/Nc2nc3ccccc3n3cnnc23)c1O, the Potency is reported as active: 5.8 µM. For Cc1nc2ccccc2c(=O)n1/N=C/c1ccc(O)c(O)c1O, the Potency was inconclusive [inhibitor, single point]. In the case of COCCCN(C(=O)c1cc(Cl)nc2ccccc12)c1c(N)n(Cc2ccccc2)c(=O)[nH]c1=O, the “activity change, negative = growth inhibition” value is reported as inactive: 8.44%. With CC(=O)c1ccc(OCCCC(=O)Nc2ccc(Cl)c(S(=O)(=O)N3CCOCC3)c2)cc1 the Potency was active: 16.4 µM. With Cc1c(C(=O)Nc2ccc(F)cc2)nnn1-c1cccc(C(F)(F)F)c1 the Potency was active: 7.31 µM. For O=C(NCc1ccccn1)c1ccc(Cl)c(S(=O)(=O)Nc2ccccc2C(=O)NCc2ccccn2)c1, the “activity change, negative = growth inhibition” value was inactive: -6.69%. In the case of COC(=O)Cc1ccc(NC(=S)NCCSc2ccc(C)cc2)cc1, the Potency is reported as inconclusive [inhibitor, single point]. For O=C(NCC1(c2ccccc2)CCCC1)c1ccc(Br)o1, the Potency was inconclusive [inhibitor, partial curve]. For COCc1cc(=O)oc2cc(NC(=O)c3ccc(C(C)(C)C)cc3)ccc12, the Potency was active: 9.2 µM. In the case of O=C(NC(CC(=O)N1CCN(c2ccc([N+](=O)[O-])cc2)CC1)c1ccccc1)c1ccccc1Cl (stereo not drawn), the Potency is reported as inconclusive [inhibitor, single point]. With CN(C)S(=O)(=O)c1cccc(NC(=O)c2ccncc2)c1 the “activity change, negative = growth inhibition” value was inactive: -19.6%. With COc1ccc(Cc2c(-c3ccc(OC)c(OC)c3)nc3ccc(C)cn23)c(C)c1 the Potency was inconclusive [inhibitor, single point]. With CCNC(=S)NC1CC2CCCC(C1)N2CCc1ccccc1 (stereo not drawn) the “activity change, negative = growth inhibition” value was inactive: -1.61%. In the case of CCC(C)(C)n1nnnc1C(c1cccs1)N1CCN(Cc2ccccc2)CC1 (stereo not drawn), the Potency is reported as inconclusive [inhibitor, single point]. For Cc1ccccc1C(=O)NNC1=NCCC1, the “activity change, negative = growth inhibition” value was inactive: -2.22%. With O=C(CSc1nnnn1C1CC1)N1CCN(c2cccc(Cl)c2)CC1 the Potency was inconclusive [inhibitor, partial curve]. For CCCCCCSc1ccc(-c2nc3cnccn3c2NCCCC)cc1, the Potency was inconclusive [inhibitor, single point]. In the case of CC1(c2ccccc2)CC(C)(C)N(C(=O)CSc2nnc(N)s2)c2ccccc21 (stereo not drawn), the Potency is reported as inconclusive [inhibitor, partial curve, poor fit]. For CC(=O)Nc1ccc(NC(=O)Cn2cnc3c(cnn3C(C)(C)C)c2=O)cc1, the “activity change, negative = growth inhibition” value was inactive: -11.5%. In the case of C[C@H]1CN([C@@H](C)CO)C(=O)c2cc(Br)cnc2O[C@@H]1CN(C)C(=O)Nc1ccc(C(F)(F)F)cc1, the Potency is reported as active: 20.6 µM. For COc1ccc(CNC(=O)CCCn2nc([N+](=O)[O-])cc2C)cc1, the “activity change, negative = growth inhibition” value was inactive: -6.5%. For CCCCOc1ccc(C(=O)N2CCCCCC2)cc1, the “activity change, negative = growth inhibition” value was inactive: -12%. For Cc1ccc(C2(C)NC(=O)N(CC(=O)Nc3cc(S(=O)(=O)N(C)C)ccc3C)C2=O)cc1 (stereo not drawn), the Potency was inconclusive [inhibitor, single point]. With O=C(c1cc2c(s1)-c1ccccc1OC2)N1CCCC1 the Potency was inconclusive [inhibitor, single point]. In the case of COc1ccc(C(CNC(=O)c2oc3ccc(C)cc3c2C)N2CCCCC2)cc1 (stereo not drawn), the Potency is reported as active: 20.6 µM. In the case of Fc1ccc(CSc2nnc(-c3ccccn3)o2)cc1, the “activity change, negative = growth inhibition” value is reported as inactive: 5.55%. For CCn1c(CSc2nnc(C)n2-c2ccccc2)nc2cc(S(=O)(=O)N(C)C)ccc21, the “activity change, negative = growth inhibition” value was inactive: -12.1%. For Cc1ccc(C(=O)OCC(=O)Nc2ccccc2Sc2ccccc2)cc1C, the Potency was inconclusive [inhibitor, single point]. In the case of Cc1cccc(NC(=O)Cc2ccc(-c3ccccc3)cc2)n1, the activity change, negative = growth inhibition is reported as inconclusive: -32.8% [inhibitor]. With CN(C)CCNS(=O)(=O)c1ccc(N2CCc3ccccc32)c([N+](=O)[O-])c1 the Potency was active: 16.4 µM. For C=CCc1ccc(OC(=O)c2ccccc2)c(OC)c1, the activity change, negative = growth inhibition was inconclusive: -17.7% [inhibitor]. In the case of Cc1cccc(NC(=O)c2sc3nc4c(cc3c2N)CN(Cc2ccccc2)CC4)c1, the Potency is reported as active: 14.6 µM. In the case of N#Cc1ccc(C(=O)Nc2ccn(-c3ccccc3)n2)cc1, the Potency is reported as inconclusive [inhibitor, single point]. With COc1ccc(CCN(C)C(=O)c2c(C)noc2C)cc1OC the “activity change, negative = growth inhibition” value was inactive: -14.3%. With CCCCNS(=O)(=O)c1ccc(NC(=O)C(Sc2ccccc2)c2ccccc2)cc1 (stereo not drawn) the Potency was inconclusive [inhibitor, single point]. In the case of CNC(=S)NNC(=O)c1ccccc1Cl, the “activity change, negative = growth inhibition” value is reported as inactive: 3.38%. For CCCCNC(=O)C(NC(=O)c1ccc(-c2ccccc2)cc1)C(=O)c1ccccc1 (stereo not drawn), the Potency was inconclusive [inhibitor, single point]. With COC(=O)/C(=C\C(=O)c1ccccc1)Nc1cccc(C(F)(F)F)c1 the Potency was inconclusive [inhibitor, single point].
